Over roughly 33,000 sequences, “E-score (-0.5 to 0.5)” has its median near -0.043; the highest 2% begin near 0.37. The list shows a part of the results.

This note sets out measurements from the supplement of paper PMC3334620.

The target in this assay is T1, Upc2 (UniProt Q12151).
T1 sequence: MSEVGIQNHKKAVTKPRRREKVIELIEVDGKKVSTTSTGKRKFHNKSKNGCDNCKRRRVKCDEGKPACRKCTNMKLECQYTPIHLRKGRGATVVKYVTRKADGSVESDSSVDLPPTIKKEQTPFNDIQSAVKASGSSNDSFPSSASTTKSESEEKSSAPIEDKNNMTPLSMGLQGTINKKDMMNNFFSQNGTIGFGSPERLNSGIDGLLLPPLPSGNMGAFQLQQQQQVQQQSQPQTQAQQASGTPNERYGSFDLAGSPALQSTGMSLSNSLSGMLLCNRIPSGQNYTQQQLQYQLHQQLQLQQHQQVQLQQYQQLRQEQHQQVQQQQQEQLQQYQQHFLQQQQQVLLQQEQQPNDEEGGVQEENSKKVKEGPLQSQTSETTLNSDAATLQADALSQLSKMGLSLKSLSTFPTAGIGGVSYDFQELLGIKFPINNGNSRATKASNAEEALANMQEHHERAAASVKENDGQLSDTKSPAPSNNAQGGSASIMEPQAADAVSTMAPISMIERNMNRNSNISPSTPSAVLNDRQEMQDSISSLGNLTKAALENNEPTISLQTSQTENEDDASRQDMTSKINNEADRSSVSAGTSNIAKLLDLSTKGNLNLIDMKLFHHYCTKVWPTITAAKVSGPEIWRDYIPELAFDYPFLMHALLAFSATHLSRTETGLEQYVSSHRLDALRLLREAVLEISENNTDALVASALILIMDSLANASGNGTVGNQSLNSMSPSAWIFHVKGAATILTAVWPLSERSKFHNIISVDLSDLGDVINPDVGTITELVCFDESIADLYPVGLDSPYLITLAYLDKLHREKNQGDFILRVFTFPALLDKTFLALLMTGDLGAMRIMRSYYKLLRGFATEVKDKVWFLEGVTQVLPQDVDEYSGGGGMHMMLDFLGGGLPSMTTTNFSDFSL
Description: PBM E-score (8-mer binding enrichment) (E-score (-0.5 to 0.5)); higher = stronger / more preferred TF binding; most listed sequences are background and not binding sites. To be noted: protein concentration: 200 nM; construct: GST-full length. Summed up: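 Using PURExpress in vitro transcription/translation, GST-tagged yeast transcription factors were made in full-length or DNA-binding-domain form. These were applied at about 100-200 nM to double-stranded universal all-10-mer Agilent arrays, and bound protein was detected with fluorescent anti-GST. Scans were normalised with masliner before the Universal PBM Analysis Suite assigned E-scores to ungapped eight-base words pooled with their reverse complements.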
For the sequence ACAAGCTG, the “PBM E-score” value was -0.00021.

Turning to CGAGATCC, the “PBM E-score” value amounted to 0.164. For the sequence CACCTAAA, the “PBM E-score” value was 0.0827. The same measure for AAGCAGTA: -0.0632. CATGGTCA: the “PBM E-score” value is 0.0922. Next, GCGTAGCC: 0.0116; ATCGAGAA: 0.0338; AGAAAGGG: -0.102. The same measure for GGCTAATA: 0.0467. Next, CAAGCGCG: 0.113; CTGGCAGC: -0.151; ACGCGTCC: -0.0191.

Consider AGCATTTA, for which the “PBM E-score” value is -0.00316. Next, AGACTTGC: -0.0795; CGGATCCC: -0.0506; ACAATGGC: 0.0891. For the sequence GTACTGAA, the “PBM E-score” value turned out to be 0.193. The same measure for CTGGCCGA: -0.0256; for CAATCATG: -0.0906; for ACCATGCA: -0.084. For GATTCGCA, the “PBM E-score” value amounted to 0.131. Next, CAATCATC: -0.0932; GCGAGACA: 0.00192; AGTTCTGG: -0.111. In the case of ACCGCCAT, the “PBM E-score” value is -0.125.

Consider AAGCCCAC, for which the “PBM E-score” value is -0.0729. Next, CTTCGCCA: -0.2; ACGTCCCG: 0.0323.

Take GATAGGCC: the “PBM E-score” value was -0.146. The same measure for GATTACCC: -0.141. The same measure for CAAAATCG: 0.0182; for GACCCGAA: -0.0162; for CCTAAGGC: -0.355. Next, AGATATGC: -0.186. AAGCGTCC: the “PBM E-score” value is -0.124. As for CAGCAGAG, the “PBM E-score” value was -0.188. Next, GCTGGCCC: -0.229. Consider CTTTACAC, for which the “PBM E-score” value came to 0.12. As to AAATCCTC, the “PBM E-score” value is -0.209. Take ATAACTCC: the “PBM E-score” value is -0.0656. For TCGTTGAA, the “PBM E-score” value amounted to 0.328.

In the case of AAGGTACA, the “PBM E-score” value was -0.0721. Turning to AAAAGTCA, the “PBM E-score” value was -0.0856. For the sequence CGCTAAAG, the “PBM E-score” value was found to be 0.146. The same measure for ACTTGTGC: -0.116. As to CAAAGAGA, the “PBM E-score” value was -0.127. The same measure for ATGGTCAA: 0.0476. Take CGCAGACA: the “PBM E-score” value is -0.0682. Next, CATAGTGA: -0.0206; CATCCCAG: -0.0709; ATATTCCA: -0.00152.

Take CATATACA: the “PBM E-score” value is 0.05. Next, CTAGGTAC: 0.0119; GGATGCCC: -0.0726; ACCGAGCT: 0.186. The same measure for GCGCTGAC: -0.4; for CTGCACCC: 0.0171; for ATGACGGC: -0.143. As for CGAGGAAA, the “PBM E-score” value was determined as 0.026.

As to CTATTTTC, the “PBM E-score” value was -0.111. With ACTTAATC, the “PBM E-score” value was 0.0034. As for ACGATTGC, the “PBM E-score” value was determined as 0.266. Consider GTCACCTA, for which the “PBM E-score” value is -0.156. Next, GTCAGTCA: -0.217. Take CTGTATAC: the “PBM E-score” value was found to be 0.281. Next, GTACAGCA: 0.299; ATACACAT: 0.0375.

For ACAGATAC, the “PBM E-score” value is 0.174.

Take AGGTTTTC: the “PBM E-score” value stood at 0.119.

For the sequence AGCCTAGG, the “PBM E-score” value is -0.266.

For ACCTTAAA, the “PBM E-score” value came out at 0.0805. For the sequence AATTCGGT, the “PBM E-score” value was found to be 0.248. The same measure for GGCATCAC: -0.238. Turning to GGTATCAC, the “PBM E-score” value is -0.126. Next, CATTATCG: 0.194; ATCGGTCA: 0.0141. The same measure for GACGGTTA: -0.116; for GAATAATA: 0.151.

On to ACAAGGAT, for which the “PBM E-score” value was -0.148. The same measure for CTACGTAC: 0.305; for ACGGAACC: 0.24; for CTGGTGAA: -0.22. Next, CGTCCCCA: -0.0614; GGATTTGA: 0.0631.

In the case of CTCTGCAC, the “PBM E-score” value was -0.0204. Next, AAAGCACT: -0.0357. As for AATACGCC, the “PBM E-score” value turned out to be 0.00457. Next, CCGCTATC: -0.0602; AAAGCGAC: 0.145; ATAAAAAG: 0.0686.

Take GGGAATAA: the “PBM E-score” value was found to be 0.0576. As to CCATCGCC, the “PBM E-score” value was -0.267. Next, CACGGTGC: -0.0595; ACGACCCG: 0.285. Next, ACGGGGGA: 0.0614.

In the case of CCTATACA, the “PBM E-score” value came to 0.151.
